Assay results published in the supplement of paper PMC3334620.
In all, about 33,000 sequences were measured (“E-score (-0.5 to 0.5)”: median about -0.017, highest 2% from about 0.3 on). Some of the results follow.

Target: T1, Sut1 (UniProt P53032)
T1 sequence: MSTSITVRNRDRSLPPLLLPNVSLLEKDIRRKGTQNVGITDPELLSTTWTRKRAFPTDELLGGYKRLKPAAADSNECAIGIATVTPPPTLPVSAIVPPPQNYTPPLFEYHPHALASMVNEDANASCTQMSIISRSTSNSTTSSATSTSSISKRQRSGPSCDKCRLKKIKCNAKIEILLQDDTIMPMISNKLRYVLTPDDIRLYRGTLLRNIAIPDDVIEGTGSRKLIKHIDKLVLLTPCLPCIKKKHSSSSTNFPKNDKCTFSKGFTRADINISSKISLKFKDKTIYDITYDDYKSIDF
Assay: PBM E-score (8-mer binding enrichment) (E-score (-0.5 to 0.5)); higher = stronger / more preferred TF binding; most listed sequences are background and not binding sites
Settings: protein concentration: 200 nM; construct: GST-full length
In short: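 Masliner-normalised scans of fluorescent anti-GST signal were the basis for scoring. That signal came from GST-tagged yeast transcription factors applied at about 100-200 nM to double-stranded universal all-10-mer Agilent arrays on fresh or once-stripped slides. Each ungapped eight-base word, pooled with its reverse complement, received an E-score from the Universal PBM Analysis Suite.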

Sequence	PBM E-score
ATAAATTG	0.268
GCTTTAAC	-0.0118
AAAACATA	0.194
AGTATCTC	0.116
AATACGTG	-0.0995
GACGGATC	0.00624
GACTTTGC	0.0488
CCCGCGCG	0.00082
GAGAGAAA	0.0959
GCCAGCTA	-0.293
GGCCGGAC	0.302
CGGGTGAA	0.141
ATCCAGGG	-0.244
CGTCGCCA	-0.133
CTGCCTAC	-0.0133
AGTCCGGG	0.485
TAACCGTA	-0.0185
GCTATTCA	0.0978
GGACCCAA	-0.0167
GCTATACC	-0.134
AGCACCTG	-0.127
CGCTCACC	-0.145
AATGCCAA	0.0414
ACCTGCCC	-0.282
AAACAAGC	0.0434

Sequence	PBM E-score
AACGGTCC	-0.0984
GTTACGGA	0.231
ACACTCAA	0.0928
AAGCTACC	-0.0295
TACTCGCA	0.0383
AACTCTTA	0.126
GGCCCGAC	-0.109
ATGTATTA	0.251
CGCACCGC	-0.133
ATCGAGGA	0.0113
GACATCGA	-0.157
CGCACGCC	-0.0167
ATTTGTTC	0.286
ACTCTCTG	-0.0936
GGTCGTAA	-0.0279
GCTGTACC	-0.103
CCGGGACA	0.17
AAGGTGCG	-0.00385
AGGATTAG	-0.0387
GAGACAAC	-0.0176
AAAGCAGT	0.0204
CAGACCTG	-0.0841
CTTATCTC	0.0713
AACGAGGG	-0.199
AGGTTAAT	0.0927

Sequence	PBM E-score
ACTCAGAA	0.112
AGGCATAC	-0.0745
ACATTCAA	0.175
AATAACCT	0.12
GAGTGTCC	0.107
AATGGCCC	-0.277
CGGAATGC	0.122
ACGTCACG	-0.103
GAGGTGAC	0.0848
CCATCATA	0.0522
AGCTTACC	0.0119
AACACCAC	0.0652
GCTGAAAA	0.16
CGGATCCA	0.115
AGTAGTCA	-0.1
GAAGGCTA	-0.0663
CTATGAAC	0.0322
CTCTTTTC	-0.0102
CTGAGAAA	-0.0651
AAGATGCG	-0.0649
CTCCCGGA	0.232
AACACGAA	0.128
GACGTGTA	-0.0944
AGGTTTAC	-0.0352
AGAGGACT	-0.258

Sequence	PBM E-score
AAGTACAA	0.00208
CTCCCCTC	-0.134
CACGACAA	0.00429
GGGTATCA	-0.0925
ATCCGATA	0.215
ATGCGCGA	-0.0204
TCGATCCA	-0.127
ATCACAAG	0.00308
ACTGGAGA	-0.0654
ATGCTTGA	0.0338
ATCAGCAA	-0.171
AAAGACCC	0.0566
CGTGCAAA	-0.0235
CCAGATCC	-0.113
GGCAAACA	-0.119
ACTAATTG	0.0824
CCCATTAG	-0.38
ATATGAGA	0.0865
GAGAGTGC	-0.104
GAACGTGC	-0.234
ACGTCGAG	-0.248
CGACGTAC	0.0978
CGTAGACG	-0.0853
GCGTGTAA	-0.18
CGCCCTAC	-0.118

Sequence	PBM E-score
AACAACTC	-0.0194
ACGGTCCG	0.0302
GGGCACAA	-0.151
GTCGAAGA	0.0646
GGGAGAGA	-0.189
CTCTAGAA	-0.0857
CCTTGGGC	-0.218
AGCTTTAG	0.0455
TCATATAA	0.121
AGCTGCCT	-0.172
ATCGAATA	0.0868
GTACATCA	0.111
CCACCAGA	-0.234
TAAATTCA	0.133
AACCGGTA	-0.0996
TAAGCTGA	-0.0432
CAATCCAC	0.127
ACCGTGTA	-0.0124
CTCACCAC	-0.0825
CTGAAGAA	-0.116
TAACCTAA	0.147
GAATTGGC	-0.0577
ATAAACAT	0.288
GTATGCAA	0.0449
CTGTAAGA	0.0631

Sequence	PBM E-score
CCGTCTAA	0.0557
AAGGCGAG	-0.271
GTTGAAAA	0.104
ATGAAAAT	0.17
TAAGAGGA	0.11
ATGGCCAC	-0.246
AAAATTAC	0.237
CAGTTCAG	-0.0755
CTCACCCC	0.0815
CGTCCCAA	-0.0843
CGCCGCGA	0.0357
GTTAACTA	0.215
CATCTCCC	-0.138
ACCTATAG	-0.115
CTCAAGAC	-0.095
GCAAAAAC	0.149
AGGCCATG	-0.206
CCTCATAC	-0.18
TCAGTAAA	0.149
AGTGACTA	-0.0144
ACAGATGC	-0.0584
AACCGACT	0.124
CGACTGCA	-0.0805
AACAAACC	0.0984
GAGGAGAA	-0.27

Sequence	PBM E-score
CATAACTA	0.142
CAGGGAGC	-0.326
CTCAGTGC	-0.0955
CTTAGCCA	-0.155
CGGGTACG	-0.171
CGCACAAG	-0.13
AAAAGATT	0.0975
CAGAGCTA	-0.331
CACATTTC	0.25
CAATACAA	0.154
GGTGCCTA	-0.151
CTAGCGCA	-0.174
CTCGGGAA	-0.0661
AGTAACAC	0.0225
TACATGTA	0.204
CCCCCCAC	-0.359
CCAGACTA	-0.209
ATGGGACC	-0.22
CCAATTAG	0.0805
GTCGGCCA	-0.268
CCCTAAAA	0.0224
ACCAAGCG	-0.00241
CCGATCAA	0.108
GGATGAAC	0.0615
GGGCGGAA	-0.0137

Sequence	PBM E-score
TAATAGTA	0.283
ATCGGAAG	0.253
CCTAGGAG	-0.177
AACGGACT	0.444
ACGGCACA	-0.158
GTTTATTA	0.302
GTCCTCCA	-0.101
ACATCCAA	-0.00081
ATAGATCA	0.0921
AGTTAGAC	0.168
GGTAGCAA	-0.02
TATCTAGA	0.0246
AGTCAGAA	0.0251
CTGGCAAC	-0.199
ATAACACA	0.192
ATTGTTGA	0.0975
AAGTAGTG	-0.0875
ATGCAAGC	-0.0207
AGGTAGCC	-0.166
GAAGCAGC	-0.214
CATATTGC	-0.0751
CATCGGCC	-0.23
CATGATGG	-0.193
ACAGCCTG	-0.0779
CGGCACAC	-0.0257

Sequence	PBM E-score
ATTTATAA	0.287
ACGCTACT	-0.00433
AGATCATC	0.0227
CAGGCAGC	-0.109
ATCTAATC	0.175
CTAGTAAG	0.00245
ACAGAAGG	-0.236
CTTGAGTA	0.281
ATACTCTG	0.012
ATAGTTGA	0.145
AAGGAGAA	0.191
CCGGATGC	0.0378
CTTGATTC	0.119
ACCCAACA	-0.0229
ACGAAGAG	0.0228
AGAGCTAA	-0.0187
TCCATCCA	0.0381
ACGATGTG	0.00635
TCCTTCAA	0.0631
